Among all 410,000 compounds or so, about 6,400 (1.6%) were called active. This list was built around the results that the source calls inconclusive (neither active nor inactive); the mix of calls is not that of the screen. The call rests on the fitted dose curve; in most records, active means well fitted inhibition curve with a large enough effect; inconclusive means small, poorly fitted or top-dose-only effect; inactive means no such curve, though single readings can be large or run the other way. No potency is given beside an inconclusive call; the fits are too rough.
What follows are molecules tested against Glucagon-like peptide 1 receptor (Homo sapiens) (UniProt P43220) (assay: qHTS of GLP-1 Receptor Inverse Agonists (Inhibition Mode)). Conditions: HEK293 GLP-1R CRE-luciferase, luminescence, 24 h, GLP-1R form is constitutively active; activity change, negative = inhibition: at 38.3 µM (top of the series) unless noted.
UniProt P43220, sequence (P43220 whole entry, looked up): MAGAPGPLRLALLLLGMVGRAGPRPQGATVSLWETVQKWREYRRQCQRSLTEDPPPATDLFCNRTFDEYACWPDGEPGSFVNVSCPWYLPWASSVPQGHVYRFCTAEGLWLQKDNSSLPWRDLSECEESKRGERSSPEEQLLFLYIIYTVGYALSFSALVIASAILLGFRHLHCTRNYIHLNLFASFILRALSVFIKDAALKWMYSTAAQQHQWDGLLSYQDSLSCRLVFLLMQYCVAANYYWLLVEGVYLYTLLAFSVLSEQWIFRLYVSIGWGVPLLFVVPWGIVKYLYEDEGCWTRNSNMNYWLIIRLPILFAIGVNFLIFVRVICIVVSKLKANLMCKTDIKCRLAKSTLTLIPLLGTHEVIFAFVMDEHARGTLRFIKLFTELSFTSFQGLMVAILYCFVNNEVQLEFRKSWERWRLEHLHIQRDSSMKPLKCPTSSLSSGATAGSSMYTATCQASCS
Procedure, shortened: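 Using stably transfected HEK293 (constitutively active GLP-1R, cAMP-luciferase reporter), compounds were incubated 24 hr and luciferase measured by luminescence.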
Further: nearly all actives have a fitted effect of over 55% in size.
On the % scale 0 is the no-effect control and ±100 the full control effect; potency means the concentration at half of the fitted maximal effect; tags describe the fitted curve by direction and shape.

Structure (SMILES) | Potency | activity change, negative = inhibition
Cc1c(C(=O)NCc2ccc([N+](=O)[O-])cc2)sc(=O)n1Cc1ccc(-c2ccccc2)cc1 | inconclusive [inhibitor, single point] | –
Clc1cccc(CSc2ncnc3c2ncn3C2CCCCO2)c1 (centres undefined) | inconclusive [inhibitor, single point] | –
COc1cccc(CNC(=O)CCCn2c(=O)c3cccn3c3ccc(F)cc32)c1OC | – | inactive: 22%
Cn1c(=O)cc(SCC(=O)NCCc2ccc(Cl)cc2)c2cc(Cl)ccc21 | – | inactive: -11.7%
Clc1ccc(OCCn2cnc(Cl)c2Cl)cc1 | inconclusive [inhibitor, single point] | –
O=C(c1ccccc1Br)N(Cc1ccccc1)c1ccccc1 | active: 8.91 µM | –
CC(C)NC(=O)c1onc(CSc2ccc(F)cc2)c1C(=O)NC(C)C | inconclusive [inhibitor, partial curve, poor fit] | –
CN(CCOc1ccc(Cl)cc1)CC(=O)Nc1ccc(OC(F)F)cc1 | inconclusive [inhibitor, partial curve, poor fit] | –
COc1cc(Br)cc(C=Nc2cccc(C(F)(F)F)c2)c1O | inconclusive [inhibitor, single point] | –
O=C(O)C1=CC[C@@H](c2ccc(Cl)cc2)N(S(=O)(=O)c2ccc(Cl)cc2)[C@H]1c1ccc(F)cc1 | inconclusive [inhibitor, partial curve, poor fit] | –
COc1ccc(CCNC(=O)c2oc3ccccc3c2C)cc1 | inconclusive [inhibitor, single point] | –
Cc1ccc(C)c(NC(=O)N2CCc3ccccc3C2)c1 | – | inactive: -14.9%
Nc1nc(O)c(Sc2ccccc2[N+](=O)[O-])c(=O)[nH]1 | – | inactive: 19.7%
N=c1c(S(=O)(=O)c2ccc(Cl)cc2)cc2c(=O)n3ccccc3nc2n1CC1CCCO1 (centres undefined) | – | inactive: 3.37%
CCOc1ccc(-c2nc(CSCC(=O)NCCc3ccccc3)c(C)o2)cc1 | inconclusive [inhibitor, partial curve, poor fit] | –
NC(Cc1ccc(C(F)(F)F)cc1)c1csc(NC(=O)NCCc2ccccc2)n1 (centres undefined) | inconclusive [inhibitor, single point] | –
COc1ccc(Br)c(C(=O)Nc2ccc(F)cc2)c1 | inconclusive [inhibitor, partial curve, poor fit] | –
Clc1cccc(N2CCN(c3nc4ccccc4c4nc(-c5ccccc5)nn34)CC2)c1 | – | inactive: -5.38%
O=C(COc1ccccc1Cl)N1CCCCCCC1 | inconclusive [inhibitor, partial curve, poor fit] | –
Oc1c(Br)cc(Br)cc1/C=N/c1nc2c(s1)CCCC2 | inconclusive [inhibitor, partial curve] | –
CCN1CCN(c2cc(C)c3cc(NC(=O)c4cc(OC)c(OC)c(OC)c4)ccc3n2)CC1 | – | inactive: -7.16%
Cc1cc(/C=N/NC(N)=S)c(C)n1-c1cccc(Cl)c1 | inconclusive [inhibitor, single point] | –

Structure (SMILES) | Potency | activity change, negative = inhibition
C/C(=N\NC(=O)c1c(C)nc2ccccn12)c1ccc(O)cc1O | inconclusive [inhibitor, full curve, poor fit] | –
CCC(C)(C)C1CCc2[nH]nc(C(=O)NCCN3CCOCC3)c2C1 (centres undefined) | inconclusive [inhibitor, single point] | –
O=C(c1ccc(F)cc1)C1CCN(C(=S)Nc2ccccc2Cl)CC1 | inconclusive [inhibitor, partial curve, poor fit] | –
Cc1ccc(CN2C(=O)C(=O)c3cc(C)ccc32)cc1 | inconclusive [inhibitor, single point] | –
O=C(CON=C1c2ccccc2-c2ccccc21)NC12CC3CC(CC(C3)C1)C2 | active: 1 µM | –
CCCCn1nnnc1C(c1ccccc1)N1CCN(Cc2c(F)cccc2Cl)CC1 (centres undefined) | inconclusive [inhibitor, single point] | –
CCOC(=O)c1c[nH]n(-c2ccccc2)c1=O | – | inactive: 3.08%
CCOc1ccc(-n2c(=O)c3c(C)c(C)sc3n(Cc3c(F)cccc3Cl)c2=O)cc1 | – | inactive: 0.2%
Clc1ccc(SCc2cc(N3CCOCC3)nc(-c3ccccn3)n2)cc1 | inconclusive [inhibitor, full curve, poor fit] | –
COc1ccc(N(C(C)C(=O)Nc2ccc(S(=O)(=O)N3CCCCC3)cc2)S(C)(=O)=O)cc1 (centres undefined) | inconclusive [inhibitor, partial curve, poor fit] | –
CCCCNC(=O)c1nc(C2CCN(S(=O)(=O)c3c(OC)cccc3OC)CC2)oc1-c1ccccc1 | inconclusive [inhibitor, partial curve, poor fit] | –
COc1ccc(S(=O)(=O)N(CCCN2CCOCC2)Cc2cccc3ccccc23)cc1 | inconclusive [inhibitor, single point] | –
COCCN1Cc2cccc(C(=O)N3CCN(c4cc(C)ccc4C)CC3)c2C1=O | – | inactive: -16.4%
CCN(CCn1cccn1)C(=O)CCc1nnc(CCCc2ccccc2)o1 | – | inactive: 10.4%
O=C(NC1CCCCC1)C(c1ccccc1)N(C(=O)c1csnn1)C1CCCC1 (centres undefined) | inconclusive [inhibitor, single point] | –
FC(F)(F)c1ccnc(N2CCN(Cc3cnc(-c4ccccc4)[nH]3)CC2)c1 | inconclusive [inhibitor, partial curve, poor fit] | –
CC(=O)c1cccc(N(C(=O)c2ccco2)C(C(=O)NC2CCCC2)c2cccs2)c1 (centres undefined) | inconclusive [inhibitor, single point] | –
Cc1ccc(-n2nnnc2-c2cnc(N3CCCC3)nc2C(F)(F)F)cc1 | inconclusive [inhibitor, partial curve, poor fit] | –
Cc1ccc(Cn2c3ccccc3c3cnn(CC(=O)N4CCCCCC4)c(=O)c32)cc1 | – | inactive: -2.75%
Cc1cc(C)c2c(=O)n3c(nc2c1)C(Cc1ccc(O)cc1)NC(=O)c1cc2ccccc2cc1-3 (centres undefined) | inconclusive [inhibitor, partial curve] | –
Cc1ccccc1-c1cnc2c(c1)C(=O)N([C@@H](C)CO)C[C@@H](C)[C@H](CN(C)Cc1ccccc1F)O2 | inconclusive [inhibitor, single point] | –
CCN(Cc1ccccc1)C(=O)c1c(-c2ccccc2Cl)noc1C | inconclusive [inhibitor, partial curve, poor fit] | –

Structure (SMILES) | Potency | activity change, negative = inhibition
CCN(Cc1ccc(C#CCCO)cc1)CC1CCCN(CCc2cccc(F)c2)C1 (centres undefined) | active: 10 µM | –
CCSc1nnc(NC(=O)Nc2cccc(C)c2)s1 | inconclusive [inhibitor, single point] | –
Cc1ccc(CN2C(=O)CC(c3ccc(Cl)cc3)c3c(C)nn(-c4nc(C)cc(C)n4)c32)cc1 (centres undefined) | inconclusive [inhibitor, single point] | –
CCc1ccc2c(CN(C)Cc3ccc(OC(F)F)c(OC)c3)cc(=O)oc2c1 | inconclusive [inhibitor, single point] | –
Cc1cc(S(=O)(=O)N2CCN(c3ccccc3C)CC2)ccc1F | inconclusive [inhibitor, single point] | –
CN(CC(=O)Nc1ccccc1Cl)C(=O)CSC(=S)N1CCCC1 | – | inactive: 2.34%
Cc1[nH]c(-c2ccc(F)cc2)cc1C(=O)N1CCN(c2ccccc2F)CC1 | – | inconclusive: -92% [inhibitor]
Cc1ccc(NC(=O)CN2C(=O)S/C(=C\c3cc(C)n(C)c3C)C2=O)cc1 | inconclusive [inhibitor, full curve, poor fit] | –
CCCC(=O)Nc1nc2c(s1)CC(C(C)(C)C)CC2 (centres undefined) | inconclusive [inhibitor, partial curve, poor fit] | –
CC(=O)Nc1c(C)nn(-c2ccccc2)c1N1CCC(C(=O)Nc2ccc(Cl)cc2C)CC1 | – | inactive: 20.3%
COc1ccc(CCN2C(=O)c3[nH]nc(-c4ccccc4O)c3C2c2ccc(C)cc2)cc1OC (centres undefined) | inconclusive [inhibitor, single point] | –
CCN(CC(=O)Nc1cccc(OC)c1)C(=O)c1cccc(S(=O)(=O)N2CCc3ccccc32)c1 | inconclusive [inhibitor, partial curve, poor fit] | –
COc1c(C)cc(Br)cc1C(=O)Nc1ccccc1N1CCN(C(=O)c2ccccc2)CC1 | – | inactive: 13.6%
Cc1onc(-c2ccccc2)c1C(=O)Nc1ccc(S(=O)(=O)NC(C)(C)C)cc1 | inconclusive [inhibitor, single point] | –
COc1ccc(C(=O)O/N=C/c2c(C(F)(F)F)nn(C)c2SCc2ccccc2Cl)cc1 | inconclusive [inhibitor, single point] | –
CC1CCCC(C)N1CCCNC(=O)Cn1ncc2c3ccccc3n(C)c2c1=O (centres undefined) | inconclusive [inhibitor, partial curve, poor fit] | –
OC[C@@H]1[C@@H](c2ccccc2)C(c2ccccc2)=NN1c1ccccc1 | inconclusive [inhibitor, single point] | –
COc1ccc(CN2C(=O)NC(C)(c3ccc(C)cc3)C2=O)cc1F (centres undefined) | inconclusive [inhibitor, single point] | –
COc1ccc(OC)c(NC(=O)CSc2nccn2-c2cc(C)cc(C)c2)c1 | inconclusive [inhibitor, single point] | –
Cc1cc(NS(=O)(=O)c2ccc(NC(=O)C(C(C)C)N3C(=O)c4ccccc4C3=O)cc2)nc(C)n1 (centres undefined) | – | inactive: 0.668%
